Laboratory results taken from the RNAGym collection of RNA variant scans (doi:10.7554/elife.90254).
Read counts are not given, so values of variants with three or more changes are uncertain.

B1: LINE1-mini (parent)
chain: GGCAGAGCUCAACACAGCGUGGCAAAGUGGCUGUGGCUAGACUGCC

Variants of: B1
Assay: self-cleavage, relative activity (ratio to wild type); higher = more cleavage; in vitro, sequencing; the parent is a self-cleaving ribozyme

Q: Which self-cleavage does the source give for GGCAGAGCUCAACACAGCGUGGCAAAGUUGCUAUGGCUACACUGCC here?
A: Its self-cleavage is 0.06.

Q: For GGCAGAGCUCAACACAGCGUGGCAAAGUGACUGUGGAUUGACUGCC, which self-cleavage is on record?
A: Its self-cleavage is 0.25.

Q: Which self-cleavage does the source give for GGCAGAGCUCAACACAGCGUGGCAAAGUUGCUGUGGCUAGACAUCU here?
A: Its self-cleavage is 0.03.

Q: For GGCAGAGCUCAACACAGCGUGGCAAAGUCGCUGUCGCUGGACUGCC, which self-cleavage is on record?
A: The self-cleavage was 0.06.

Q: Which self-cleavage does the source give for GGCAGAGCUCAACACAGCGUGGCAAAGUGACUGUGUCUGGACUGCC here?
A: The self-cleavage was 0.03.

Q: Which self-cleavage does the source give for GGCAGAGCUCAACACAGCGUGGCAAAGUUGAUGUGCCUAGACUUCC here?
A: The self-cleavage was 0.02.

Q: For GGCAGAGCUCAACACAGCGUGGCAAAGUUGCAGUGGCUAGACUGCU, which self-cleavage is on record?
A: The self-cleavage was 0.04.

Q: Which self-cleavage does the source give for GGCAGAGCUCAACACAGCGUGGCAAAGUUGCUGUGGCUAAACUGAC here?
A: Its self-cleavage is 0.02.

Q: Which self-cleavage does the source give for GGCAGAGCUCAACACAGCGUGGCAAAGUGAGUGUGGGCAGACUGCC here?
A: The self-cleavage was 0.01.

Q: For GGCAGAGCUCAACACAGCGUGGCAAAGUCGCUUUGGCUGGAGUGCC, which self-cleavage is on record?
A: Its self-cleavage is 0.03.

Q: For GGCAGAGCUCAACACAGCGUGGCAAAGUCGCUGUUGCUUGACUGCU, which self-cleavage is on record?
A: The self-cleavage was 0.04.

Q: Which self-cleavage does the source give for GGCAGAGCUCAACACAGCGUGGCAAAGUUGGUUUGGCUAGACUGCC here?
A: The self-cleavage was 0.01.

Q: With GGCAGAGCUCAACACAGCGUGGCAAAGUCGCUUUUGCUAGACUGCC as the variant, how does the self-cleavage read?
A: Its self-cleavage is 0.17.

Q: For GGCAGAGCUCAACACAGCGUGGCAAAGUCGCUGUGUCUAGACUGCG, which self-cleavage is on record?
A: Its self-cleavage is 0.02.

Q: For GGCAGAGCUCAACACAGCGUGGCAAAGUUGCUGCGUCUAGACUGCC, which self-cleavage is on record?
A: The self-cleavage was 0.08.

Q: With GGCAGAGCUCAACACAGCGUGGCAAAGUUGCUGUGGCCAGACUGCU as the variant, how does the self-cleavage read?
A: The self-cleavage was 1.48.

Q: Which self-cleavage does the source give for GGCAGAGCUCAACACAGCGUGGCAAAGUGACUGUGGUUAGAAUGCC here?
A: The self-cleavage was 0.11.

Q: Which self-cleavage does the source give for GGCAGAGCUCAACACAGCGUGGCAAAGUCUCUGUGGGUAGAGUGCC here?
A: Its self-cleavage is 0.17.

Q: For GGCAGAGCUCAACACAGCGUGGCAAAGUUAGUGUGGCUAGACUGCC, which self-cleavage is on record?
A: Its self-cleavage is 0.07.

Q: For GGCAGAGCUCAACACAGCGUGGCAAAGUUGCUUUGCCUAGAGAGCC, which self-cleavage is on record?
A: The self-cleavage was 0.02.

Q: For GGCAGAGCUCAACACAGCGUGGCAAAGUUCCUGUGGCAAGACUGCC, which self-cleavage is on record?
A: The self-cleavage was 0.07.

Q: Which self-cleavage does the source give for GGCAGAGCUCAACACAGCGUGGCAAAGUUCCUGUGGCCAGACUGCC here?
A: Its self-cleavage is 0.04.

Q: With GGCAGAGCUCAACACAGCGUGGCAAAGUUGCUGUGGUCAGACUGCC as the variant, how does the self-cleavage read?
A: Its self-cleavage is 0.04.

Q: For GGCAGAGCUCAACACAGCGUGGCAAAGUGACUGUGGCUUGACAACC, which self-cleavage is on record?
A: The self-cleavage was 0.09.

Q: For GGCAGAGCUCAACACAGCGUGGCAAAGUCGCUGGGGCUAGACCGCC, which self-cleavage is on record?
A: Its self-cleavage is 0.02.

Q: With GGCAGAGCUCAACACAGCGUGGCAAAGUCGCUGUCGCUACACUGCC as the variant, how does the self-cleavage read?
A: The self-cleavage was 0.02.

Q: Which self-cleavage does the source give for GGCAGAGCUCAACACAGCGUGGCAAAGUCGCGGUGGGUAGACUGCC here?
A: The self-cleavage was 0.02.

Q: Which self-cleavage does the source give for GGCAGAGCUCAACACAGCGUGGCAAAGUGACUGUGACUUAACUGCC here?
A: The self-cleavage was 0.62.

Q: For GGCAGAGCUCAACACAGCGUGGCAAAGUCGCUGUGGUUAGACUGAC, which self-cleavage is on record?
A: The self-cleavage was 0.01.

Q: For GGCAGAGCUCAACACAGCGUGGCAAAGUUGCAGUGGCUUGACUGCC, which self-cleavage is on record?
A: The self-cleavage was 0.08.

Q: For GGCAGAGCUCAACACAGCGUGGCAAAGUGACUGUGGCUAGCCUCCC, which self-cleavage is on record?
A: The self-cleavage was 0.05.

Q: Which self-cleavage does the source give for GGCAGAGCUCAACACAGCGUGGCAAAGUCGCUGAGGCUAGGCUGCC here?
A: Its self-cleavage is 0.03.

Q: Which self-cleavage does the source give for GGCAGAGCUCAACACAGCGUGGCAAAGUCAAGGUGGCUAGACUGCC here?
A: The self-cleavage was 0.09.

Q: Which self-cleavage does the source give for GGCAGAGCUCAACACAGCGUGGCAAAGUCGCUGUGGCGGGAGUGCC here?
A: The self-cleavage was 0.01.

Q: Which self-cleavage does the source give for GGCAGAGCUCAACACAGCGUGGCAAAGUCGCUGUGGCAAGAUUGCC here?
A: Its self-cleavage is 0.11.

Q: With GGCAGAGCUCAACACAGCGUGGCAAAGUGACUGUGGCUAGGAUGUA as the variant, how does the self-cleavage read?
A: The self-cleavage was 0.05.

Q: For GGCAGAGCUCAACACAGCGUGGCAAAGUGACUGUGGCUAGUCUGGC, which self-cleavage is on record?
A: Its self-cleavage is 0.12.

Q: With GGCAGAGCUCAACACAGCGUGGCAAAGUCGCUGUGGCGAGUCUGCC as the variant, how does the self-cleavage read?
A: The self-cleavage was 0.

Q: For GGCAGAGCUCAACACAGCGUGGCAAAGUUGCUGAGGCUAGAGGGCC, which self-cleavage is on record?
A: Its self-cleavage is 0.03.

Q: Which self-cleavage does the source give for GGCAGAGCUCAACACAGCGUGGCAAAGUUGCUGUGGCUAGACUGUA here?
A: Its self-cleavage is 0.62.

Q: For GGCAGAGCUCAACACAGCGUGGCAAAGUUGCUGUUUCUAGACUGCC, which self-cleavage is on record?
A: The self-cleavage was 0.08.

Q: For GGCAGAGCUCAACACAGCGUGGCAAAGUUGCUAUUGCUAGACUGCC, which self-cleavage is on record?
A: Its self-cleavage is 0.04.

Q: For GGCAGAGCUCAACACAGCGUGGCAAAGUUGCUGCGGCUAGACUUCC, which self-cleavage is on record?
A: The self-cleavage was 0.03.

Q: For GGCAGAGCUCAACACAGCGUGGCAAAGUGACUUUGGCUAAACUGCC, which self-cleavage is on record?
A: Its self-cleavage is 0.02.

Q: With GGCAGAGCUCAACACAGCGUGGCAAAGUGACUCUGGCUAGACUGAC as the variant, how does the self-cleavage read?
A: The self-cleavage was 0.02.

Q: For GGCAGAGCUCAACACAGCGUGGCAAAGUUGUUGUGGCUACACUGCC, which self-cleavage is on record?
A: Its self-cleavage is 0.03.

Q: Which self-cleavage does the source give for GGCAGAGCUCAACACAGCGUGGCAAAGUGACUGUGACUAGCCUGCC here?
A: The self-cleavage was 0.09.

Q: Which self-cleavage does the source give for GGCAGAGCUCAACACAGCGUGGCAAAGUUGCUCUGGAUAGACUGCC here?
A: The self-cleavage was 0.05.

Q: For GGCAGAGCUCAACACAGCGUGGCAAAGUGACUGUGGCUAAACACCC, which self-cleavage is on record?
A: The self-cleavage was 0.1.

Q: Which self-cleavage does the source give for GGCAGAGCUCAACACAGCGUGGCAAAGUCGCUGUAGAAAGACUGCC here?
A: The self-cleavage was 0.01.

Q: For GGCAGAGCUCAACACAGCGUGGCAAAGUCGCAGUUGCUAGACUGCC, which self-cleavage is on record?
A: Its self-cleavage is 0.03.

Q: For GGCAGAGCUCAACACAGCGUGGCAAAGUUGCUGUGGCUAAAUUGCC, which self-cleavage is on record?
A: The self-cleavage was 0.17.

Q: For GGCAGAGCUCAACACAGCGUGGCAAAGUUGAUGUGGCCAGACUGCC, which self-cleavage is on record?
A: The self-cleavage was 0.14.

Q: For GGCAGAGCUCAACACAGCGUGGCAAAGUUGAUGUCGCUAGACUGCC, which self-cleavage is on record?
A: Its self-cleavage is 0.04.

Q: With GGCAGAGCUCAACACAGCGUGGCAAAGUUGCUGUGGCUCCACUACC as the variant, how does the self-cleavage read?
A: The self-cleavage was 0.02.

Q: With GGCAGAGCUCAACACAGCGUGGCAAAGUUACUGUGGCUAGACUGGC as the variant, how does the self-cleavage read?
A: Its self-cleavage is 0.39.
